Test [1] concerns HSkMC (human skeletal muscle cells). Description: cytotoxicity call (relative viability < 0.9). The settings on record: 10 µM.
The test system of test [2] is HepG2. As to the kind of experiment: cytotoxicity call (relative viability < 0.9). The settings on record: 10 µM.
Test [3] has as its system S. aureus RN4220. Description: growth inhibition call (relative growth <= 0.2). As to conditions: 50 µM.

Some of the results follow.

Regarding `Cc1ccccc1S(=O)(=O)N1C[C@@H](O)COC[C@@H]2O[C@H](CC(=O)N3CCOCC3)CC[C@H]21`, the cytotoxicity call in test [1] and in test [2] was “inactive” in each case. In addition, the growth inhibition call in test [3] is “inactive”.
For the compound `C[C@@H]1CCCCO[C@@H](CN(C)C(=O)Nc2ccccc2)[C@@H](C)CN([C@H](C)CO)C(=O)c2cc(NC(=O)CCCCCC(=O)Nc3ccccc3N)ccc2O1`, the cytotoxicity call in test [1] and in test [2] was “inactive” throughout. In addition, the growth inhibition call in test [3] is “inactive”.
With `C[C@H](CO)N1C[C@H](C)[C@H](CN(C)S(=O)(=O)c2cccs2)Oc2ccc(NC(=O)Nc3cccc4ccccc34)cc2C1=O`, the cytotoxicity call in test [1] and in test [2] was “inactive” each time. Moreover, the growth inhibition call in test [3] is “inactive”.
Take `C[C@@H]1CN([C@H](C)CO)C(=O)c2cccc(NC(=O)Nc3ccc(F)cc3)c2O[C@H]1CN(C)S(C)(=O)=O`: the cytotoxicity call in test [1] and in test [2] was “inactive” each time. The growth inhibition call in test [3] is “inactive”.
In the case of `CO[C@H]1CN(C)C(=O)c2ccc(NC(=O)NC(C)C)cc2OC[C@@H](C)N(Cc2ccc(-c3ccccn3)cc2)C[C@@H]1C`, the cytotoxicity call in test [1] and in test [2] was “inactive” each time. The growth inhibition call in test [3] was “inactive”.
Regarding `COCC(=O)N1[C@H](C(=O)N2CCN(C)CC2)[C@@H](CO)[C@@H]2Cn3c(ccc(C4=CCCC4)c3=O)[C@@H]21`, the cytotoxicity call in test [1] and in test [2] was “inactive” in each case. Also, in test [3], the growth inhibition call is “inactive”.
`COCCNCc1ccc(-c2cc3nccc(Oc4ccc(NC(=S)NC(=O)Cc5ccc(F)cc5)cc4F)c3s2)nc1`: the cytotoxicity call in test [1] and in test [2] was “active” throughout. For the same compound, the growth inhibition call in test [3] was “inactive”.
As to `C[C@@H]1CN([C@@H](C)CO)C(=O)c2cc(NC(=O)Cn3cnnn3)ccc2O[C@@H]1CN(C)S(=O)(=O)c1ccccc1`, the cytotoxicity call in test [1] and in test [2] was “inactive” in each case. In addition, the growth inhibition call in test [3] is “inactive”.
For `COc1ccc(NC(=O)Nc2ccc3c(c2)C(=O)N([C@H](C)CO)C[C@@H](C)[C@H](CN(C)S(=O)(=O)c2ccc(Cl)cc2)OCCCC[C@@H](C)O3)cc1`, in test [1], the cytotoxicity call was “inactive”. Also, in test [2], the cytotoxicity call is “active”. The growth inhibition call in test [3] is “inactive”.

Source of the values: the antibiotic and cytotoxicity screens of Wong et al. (2023).
